The values that follow come from paper PMC10668032.

The other results are listed elsewhere or left out. At the low end of the ranking the order means little.

For the assay, the target named is SIX1 homeodomain (reference allele) (UniProt Q15475). Kind of assay: universal protein binding microarray. The note with it: Universal all-10-mer PBM (8x60K, AMADID 030236), 300 nM GST-tagged protein, Alexa Fluor 488 anti-GST; buffer, salt, pH and temperature not stated; high values mean tight binding; most listed sequences are background and not binding sites; double strand, one strand shown.
Regarding AAACCTCG, the binding signal is -0.0945 E-score.

GCGCGGTA: the binding signal is 0.0565 E-score.

With CATTAACC, the binding signal is -0.0556 E-score.

For AACCAAGC, the binding signal is -0.252 E-score.

For the sequence ACCGAAGT, the binding signal was -0.157 E-score.

With GTCTAGCA, the binding signal is -0.072 E-score.

Regarding ATGACGCG, the binding signal was -0.00942 E-score.

For AAAACTTC, the binding signal is -0.176 E-score.

For the sequence AAGCGCAG, the binding signal is -0.0929 E-score.

On to GGATGCCC, for which the binding signal came out at 0.0996 E-score.

Take CCGAACGG: the binding signal is -0.065 E-score.

GTGCTGAA: the binding signal is -0.0775 E-score.

In the case of TGATTCCA, the binding signal amounted to 0.106 E-score.

Regarding GGGAGAGA, the binding signal is -0.0255 E-score.

For the sequence CTGATTAA, the binding signal came to 0.149 E-score.

In the case of CGGTACCC, the binding signal was 0.122 E-score.

For TCGAAGCA, the binding signal was -0.298 E-score.

As to CACGAGGC, the binding signal was -0.185 E-score.

Take GCGATCCC: the binding signal was 0.395 E-score.

In the case of AACTGTGG, the binding signal was found to be 0.149 E-score.

As to TGCGGGAA, the binding signal is -0.111 E-score.

As for AGTCAGCC, the binding signal is -0.153 E-score.

For ATTCCTAC, the binding signal was -0.0757 E-score.

For the sequence CGTATATA, the binding signal stood at 0.253 E-score.

AACGGTAG: the binding signal was -0.0597 E-score.

Regarding AGGAATCC, the binding signal was 0.197 E-score.

For AGGTTGGC, the binding signal was -0.0254 E-score.

On to AGCACTAG, for which the binding signal was -0.0281 E-score.

With GGATCCTA, the binding signal came to 0.377 E-score.

With AGACCCCG, the binding signal is 0.23 E-score.

In the case of TTGGCAAA, the binding signal is -0.202 E-score.

For AATCTGCG, the binding signal worked out at 0.0465 E-score.

With AAGTACTA, the binding signal is -0.134 E-score.

As to ATTTAGGA, the binding signal worked out at 0.00797 E-score.

Consider AAGCTGTG, for which the binding signal is -0.106 E-score.

ATAGTAGA: the binding signal is 0.193 E-score.

As for AAGCCGCA, the binding signal is -0.105 E-score.

On to GACGGCCC, for which the binding signal was -0.175 E-score.

Regarding GTATCAAA, the binding signal amounted to 0.452 E-score.

On to AGCGAAAT, for which the binding signal is -0.113 E-score.

Turning to CCCGGTGC, the binding signal was -0.0819 E-score.

As for GCAACCAC, the binding signal was -0.282 E-score.

Turning to AAAGGCGC, the binding signal was -0.125 E-score.

Turning to CCGGTTAC, the binding signal is 0.136 E-score.

Consider TATGGTGA, for which the binding signal stood at 0.122 E-score.

Turning to ACGTTAGA, the binding signal was -0.145 E-score.

For the sequence ATATGTGA, the binding signal was determined as 0.259 E-score.

On to ATCTAATA, for which the binding signal is 0.237 E-score.

Take AACGTAGT: the binding signal is -0.183 E-score.

For the sequence ACGCTCTG, the binding signal was -0.179 E-score.

ATATAACG: the binding signal stood at 0.233 E-score.

Take GGCGGTAA: the binding signal is 0.0689 E-score.

As to ATAGCGGG, the binding signal worked out at 0.144 E-score.

On to ATAGGGTG, for which the binding signal was 0.161 E-score.

In the case of AGAAGGTG, the binding signal amounted to 0.174 E-score.

GAGGAATA: the binding signal is 0.21 E-score.

Take ATGAAACG: the binding signal came to 0.0421 E-score.

Take GCTGAGAC: the binding signal is 0.214 E-score.

Consider GGTTGTAC, for which the binding signal was 0.0201 E-score.

As to AACGCAGC, the binding signal is -0.0572 E-score.

On to AATAAGAA, for which the binding signal was -0.18 E-score.

As for AAGTGCAT, the binding signal is -0.14 E-score.

On to CACAGCGG, for which the binding signal was -0.0489 E-score.

In the case of CATCCTAC, the binding signal worked out at 0.157 E-score.

With GGATCCGA, the binding signal is 0.376 E-score.

Turning to AGCGAACG, the binding signal is -0.244 E-score.

Take ACGTCAAC: the binding signal is -0.218 E-score.

Regarding GCGACCAA, the binding signal was -0.177 E-score.

As for AGGGGGAA, the binding signal was -0.0477 E-score.

For ACGCGAAA, the binding signal is -0.333 E-score.

CCCCAGAC: the binding signal is -0.107 E-score.

With CCGAACAC, the binding signal is -0.0332 E-score.

Consider ATGACGAA, for which the binding signal was -0.0278 E-score.

Take CCCTGCAG: the binding signal amounted to 0.135 E-score.

Consider CGAGCCCG, for which the binding signal was 0.0269 E-score.

In the case of AGAGGAGC, the binding signal was -0.087 E-score.

In the case of CAATACGC, the binding signal amounted to 0.198 E-score.

For AATCAACG, the binding signal is -0.0564 E-score.

With GACCTAGA, the binding signal is -0.119 E-score.

On to GCCATGAA, for which the binding signal is -0.178 E-score.

As for ACGCATGC, the binding signal is -0.0871 E-score.

For CCTTGGCG, the binding signal was -0.0796 E-score.

For CCCACACC, the binding signal is 0.078 E-score.

As for TCCTGTAA, the binding signal was -0.126 E-score.

For CGTCGGTC, the binding signal is -0.17 E-score.

On to GATTTTCC, for which the binding signal was -0.106 E-score.

GTACTTAA: the binding signal is -0.197 E-score.

Take AATAAAAT: the binding signal was -0.171 E-score.

In the case of CGAACCCA, the binding signal came to 0.148 E-score.

In the case of CCGAGGCA, the binding signal was -0.171 E-score.

For CGAAGACC, the binding signal was -0.0669 E-score.

Turning to CTCACGCA, the binding signal was 0.0103 E-score.

Take AAGGGCTA: the binding signal was -0.0168 E-score.

For CGAAACCC, the binding signal turned out to be 0.173 E-score.

Consider CGCCTGGA, for which the binding signal came out at 0.0146 E-score.

For the sequence AGCACATA, the binding signal is 0.0159 E-score.

Take ACTGTCTA: the binding signal was found to be 0.0271 E-score.

On to CGCGGAAC, for which the binding signal was -0.193 E-score.

For the sequence ATTGGTAG, the binding signal was -0.0183 E-score.

On to CCCTATTA, for which the binding signal turned out to be 0.0844 E-score.

Consider ACGATACC, for which the binding signal amounted to 0.477 E-score.

As to ACGCAGAC, the binding signal is -0.041 E-score.

Turning to ATGTAGGG, the binding signal came out at 0.0453 E-score.

Consider CACCGCAG, for which the binding signal worked out at 0.0662 E-score.

Regarding AGAAAGAA, the binding signal was -0.005 E-score.

As for TCAATAGA, the binding signal is -0.144 E-score.

For the sequence ATTAAGAC, the binding signal is -0.0199 E-score.

As for CCAAAGCA, the binding signal was -0.138 E-score.

GCCCGAAA: the binding signal is -0.208 E-score.

In the case of AAGCCATT, the binding signal was -0.242 E-score.

For TCACCTAA, the binding signal is -0.0448 E-score.

As for AATCGCCT, the binding signal was -0.03 E-score.

On to ACATTGCT, for which the binding signal is -0.0283 E-score.

With ATGCCCTC, the binding signal was -0.000855 E-score.

Regarding GGCGTGGA, the binding signal was -0.0236 E-score.

For AAATGGAC, the binding signal is -0.0559 E-score.

Take GTTTTTAA: the binding signal was -0.042 E-score.

Consider ACGAAGGG, for which the binding signal is -0.0914 E-score.

With AGCATGTG, the binding signal is -0.0944 E-score.

Take AGCAATTG: the binding signal is -0.0871 E-score.

Turning to GCACCCAA, the binding signal turned out to be 0.0452 E-score.

Regarding ATGTCACC, the binding signal is -0.00357 E-score.

As for GAGCCTCA, the binding signal is -0.241 E-score.

Regarding GTTGCTCA, the binding signal is -0.0503 E-score.

Regarding CATTGCGA, the binding signal came to 0.103 E-score.

Regarding TACCTCCA, the binding signal was 0.0612 E-score.

In the case of GTAGCTCA, the binding signal was -0.0163 E-score.

In the case of ACTTGCTC, the binding signal is -0.196 E-score.

As to CATCTCTA, the binding signal was -0.0365 E-score.

As for TCAACCCA, the binding signal was -0.0587 E-score.

On to CCCGACAC, for which the binding signal is 0.19 E-score.

With GCGAGGTA, the binding signal was -0.0286 E-score.

As to AACTTAGC, the binding signal was -0.128 E-score.

Turning to CGCGGTGA, the binding signal is 0.121 E-score.

As to CCCGGTTC, the binding signal is 0.111 E-score.

For the sequence CCATTTAC, the binding signal was 0.0277 E-score.

Turning to GTTCGTCA, the binding signal was -0.234 E-score.

In the case of ACAATCCC, the binding signal was 0.283 E-score.

Consider CAGCCATC, for which the binding signal was -0.179 E-score.

In the case of AGAACAAC, the binding signal was -0.266 E-score.

As to ACTTAGCC, the binding signal was -0.148 E-score.

As to AGGTTAAC, the binding signal was -0.16 E-score.

For GTGACTGA, the binding signal was -0.0785 E-score.

As for TGAGCTCA, the binding signal is 0.0704 E-score.

CTGGATAA: the binding signal is 0.0999 E-score.

AAGGCCCT: the binding signal is -0.233 E-score.

For ATGACTCA, the binding signal was -0.191 E-score.

On to CAAGCCGA, for which the binding signal stood at 0.0925 E-score.

Regarding ACGCACAC, the binding signal was -0.078 E-score.

Take AGCTGCGG: the binding signal was 0.0368 E-score.

For CACTTAAA, the binding signal is -0.158 E-score.

As for GAATTTAA, the binding signal is -0.183 E-score.

Take ATGAGAAA: the binding signal is -0.303 E-score.

For the sequence ATGCGTGG, the binding signal is -0.167 E-score.

In the case of AATAGGCA, the binding signal is -0.042 E-score.

For the sequence AGCGATCA, the binding signal was determined as 0.206 E-score.

Take GTTGGTCA: the binding signal came out at 0.00924 E-score.

Regarding ACAATATG, the binding signal amounted to 0.239 E-score.

As for CAATGGTA, the binding signal turned out to be 0.0387 E-score.

Take AACCCAAA: the binding signal was -0.117 E-score.

On to CTGCAATC, for which the binding signal was -0.0479 E-score.

CACACCGG: the binding signal came to 0.224 E-score.

On to AGATATGC, for which the binding signal worked out at 0.353 E-score.

Turning to CGTAGAAG, the binding signal was -0.015 E-score.

On to AACCCGCG, for which the binding signal amounted to 0.0406 E-score.

Turning to CATCCGAC, the binding signal stood at 0.209 E-score.

Take AACCAGCG: the binding signal was -0.101 E-score.

Consider GGTATTAA, for which the binding signal worked out at 0.366 E-score.

GGACTACA: the binding signal was -0.228 E-score.

Consider CAGGTGGC, for which the binding signal is -0.125 E-score.

Turning to ACGTTCTA, the binding signal is -0.0736 E-score.

With GCACATGC, the binding signal was -0.227 E-score.
